Measured values from PubChem BioAssay AID485294 (National Center for Advancing Translational Sciences (NCATS), 2010).
Several values for one entry are separate records, joined by “and”; a condition that tells them apart may be missing. Equal entries are not always repeated. The whole screen tested about 370,000 compounds, of which about 150 (0.041%) were called active. The inconclusive results got no clear call from the source; some entries with a clear call stand among them for comparison. Calls follow the shape of the dose curve; as a rule, active = well fitted inhibition curve with a large enough effect; inconclusive = small, poorly fitted or top-dose-only effect; inactive = flat fitted curve, though single readings scatter. A potency beside an inconclusive call is a rough fit, not a confirmed value.

biological target: Beta-lactamase (Escherichia coli (strain K12)) (UniProt P00811); assay: qHTS Inhibitors of AmpC Beta-Lactamase (assay with detergent); conditions: AmpC hydrolysis of nitrocefin, absorbance 480 nm, 0.01% Triton; series mostly up to 114 µM; also: nearly all actives have a fitted effect of over 25% in size
Procedure, shortened: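 AmpC (5.3 nM in the dispensed reagent) in 20 mM phosphate pH 7.0 with 0.01% (detergent screen) or 0.0001% Triton X-100 was preincubated with compounds for 15 min at room temperature. Nitrocefin was then added from an 800 uM solution, and hydrolysis was followed at 480 nm.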
Potency is read from the fitted curve at half-maximal effect; tags tell the direction and shape of the fitted curve.

UniProt P00811, sequence (P00811 whole entry, looked up): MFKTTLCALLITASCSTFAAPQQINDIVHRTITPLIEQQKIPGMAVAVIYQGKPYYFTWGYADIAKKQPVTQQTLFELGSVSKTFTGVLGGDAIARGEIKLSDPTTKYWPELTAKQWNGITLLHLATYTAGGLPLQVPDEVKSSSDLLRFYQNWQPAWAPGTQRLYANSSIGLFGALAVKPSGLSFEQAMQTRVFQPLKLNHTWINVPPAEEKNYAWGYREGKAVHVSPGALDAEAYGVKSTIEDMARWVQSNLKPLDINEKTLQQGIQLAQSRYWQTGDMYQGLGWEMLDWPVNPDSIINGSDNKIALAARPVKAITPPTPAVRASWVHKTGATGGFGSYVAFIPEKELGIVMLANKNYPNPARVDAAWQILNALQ

SMILES | Potency
CS(=O)(=O)c1nc(-c2ccc(Br)cc2)cc(-c2ccccc2)c1C#N | inactive
Cc1cc(C(=O)NC(C)c2ccncc2)no1 (stereo not given) | inconclusive: 1.12 µM [inhibitor, full curve, poor fit]
CN(C)S(=O)(=O)c1ccc(Cl)c(NC(=O)CN2C(=O)NC3(CCCC3)C2=O)c1 | inconclusive: 17.8 µM [inhibitor, partial curve, poor fit]
COc1ccc(C(=O)/C=C2\NCC3c4ccccc4CCN3C2=O)cc1 (stereo not given) | inconclusive: 70.8 µM [inhibitor, partial curve, poor fit]
Cc1ccc2nc(NC(=O)CN3C(=O)C4CC=CCC4C3=O)sc2c1 (stereo not given) | inconclusive: 39.8 µM [inhibitor, partial curve, poor fit]
CCCS(=O)(=O)N1CCC(C(=O)NCCCOCC)CC1 | inactive
O=C(c1ccc2c(c1)OCO2)N1CCCC(c2ccccc2)C1 (stereo not given) | inconclusive: 2.82 µM [inhibitor, full curve, poor fit]
COc1cccc(/C=N/NC(=O)C(=O)Nc2ccccc2OC(F)(F)C(F)F)c1O | inactive
CC(=O)Nc1ccc(NS(=O)(=O)c2c(C)nc3sccn3c2=O)cc1 | inactive
COc1cc(NC(=O)C(F)(F)F)cc(OC)c1 | inconclusive: 0.316 µM [inhibitor, full curve, poor fit]
COc1cccc(NC(=S)N2C3CCCC2CC(NC(=O)C2CC2)C3)c1 (stereo not given) | inconclusive: 2.51 µM [inhibitor, full curve, poor fit]
Cc1ccc(C(O)P(=O)(OC2CCCCC2)OC2CCCCC2)cc1 (stereo not given) | inconclusive: 0.631 µM [inhibitor, full curve]
CC(OC(=O)CNC(=O)c1sc2ccccc2c1Cl)C(=O)NC1(C#N)CCCCC1 (stereo not given) | inconclusive: 0.631 µM [inhibitor, full curve, poor fit]
Cc1ccc(-n2nc(CO)c(C(=O)NCCCc3ccccc3)n2)cc1 | inactive
CC(=O)Nc1ccc(Cl)cc1C1COC(=O)C1=N (stereo not given) | inconclusive: 8.91 µM [inhibitor, full curve, poor fit]
O=C(/C=C/c1ccc2c(c1)OCO2)c1ccc[nH]1 | inconclusive: 63.1 µM [inhibitor, partial curve]
O=C1CCCC/C1=C\Nc1ccc(O)cc1 | inactive
Cc1ccc(SCCC(=O)Nc2ccccc2C(=O)N2CCOCC2)cc1 | inconclusive: 79.4 µM [inhibitor, partial curve]
O=C(CN1CCSCC1)N/N=C/c1cccc(Cl)c1 | inconclusive: 10 µM [inhibitor, full curve]
O=C1C(=O)N(CCCn2ccnc2)C(c2ccc(Cl)cc2)/C1=C(\O)c1ccc2c(c1)OCCO2 (stereo not given) | inactive
Cc1nnc(SCC2=C(C(=O)O)N3C(=O)C(NC(=O)Cc4ccccc4)C3SC2)s1 (stereo not given) | inactive
COc1ccc(-n2c(=O)c3ccccc3n(Cc3ccccc3C)c2=O)c(OC)c1 | inactive
Cc1ccc2nc3c(cc2c1)CC1(C(=O)N(C)C(=O)N(C)C1=O)C1COCCN31 (stereo not given) | inconclusive: 112 µM [inhibitor, partial curve, poor fit]

SMILES | Potency
Cn1cc(C(=O)NCc2ccccc2F)cn1 | inactive
CCc1nc2ccc(N3CCN(C)CC3)cc2nc1CC | inconclusive: 1 µM [inhibitor, full curve, poor fit]
CC(OC(=O)c1ccc2ccccc2c1)C(=O)N(C)Cc1ccccc1 (stereo not given) | inactive
Oc1ccc2c3c1O[C@H]1[C@@H](O)CC[C@@]4(O)[C@@H](C2)N(CC2CCC2)CC[C@]314 | inconclusive: 112 µM [inhibitor, partial curve, poor fit] and inconclusive: 56.2 µM [inhibitor, partial curve, poor fit]
CS(=O)(=O)N(CC(=O)Nc1ccc2c(c1)OCCO2)c1ccc2c(c1)OCO2 | inactive
NC(=O)c1ccc(C23CC4CC(CC(C4)C2)C3)o1 | inconclusive: 100 µM [inhibitor, partial curve, poor fit]
CN1CCN(C(=O)c2ccc3c(=O)n(Cc4ccco4)c(=S)[nH]c3c2)CC1 | inconclusive: 0.631 µM [inhibitor, full curve, poor fit]
Cc1cc2oc(C(=O)NC3CCS(=O)(=O)C3)cc(=O)c2cc1C (stereo not given) | inconclusive: 2.82 µM [inhibitor, full curve, poor fit]
Cc1ccc(S(=O)(=O)Nc2c(C(=O)O)[nH]c3ccccc23)cc1C | inconclusive: 7.94 µM [inhibitor, full curve, poor fit]
CCc1nc(N=C(N)N)nc2ccccc12 | inactive
O=C(Nc1ccccc1)/C(=C\c1cccs1)NC(=O)c1ccccc1 | inactive
C/C(=N\Nc1nc(C)cc(-c2ccccc2)n1)c1ccc(C)o1 | inactive
CCc1nc(-c2ccccc2O)n(-c2ccccc2)n1 | inconclusive: 0.562 µM [inhibitor, full curve, poor fit]
CCCN(CC(=O)Nc1ccccc1C)C(=O)c1ccc(-c2ccc([N+](=O)[O-])cc2)o1 | inactive
CC1CCCCC1NC(=O)Cn1ncc2ccccc21 (stereo not given) | inconclusive: 3.55 µM [inhibitor, full curve, poor fit]
CCn1nc(C)cc1C(=O)NC1CCCc2c1cnn2-c1ccc(C)c(C)c1 (stereo not given) | inactive
O=Cc1ccc(N2Cc3ccccc3C2)cc1 | inconclusive: 50.1 µM [inhibitor, partial curve]
CC(COC(=O)c1ccccc1)(COC(=O)c1ccccc1)/[N+]([O-])=C/c1ccccc1 | inactive
O=C(C(=O)N1CCN(c2ccc([N+](=O)[O-])cc2)CC1)c1cn(CC(=O)N2CCOCC2)c2ccccc12 | inconclusive: 22.4 µM [inhibitor, single point]
Cc1ccc(C2(O)CN(c3ccccc3C)C3=[N+]2CCS3)cc1 (stereo not given) | inconclusive: 12.6 µM [inhibitor, partial curve]
COc1cccc(C(=O)NCCSc2ccc(Br)cc2)c1 | inconclusive: 0.708 µM [inhibitor, full curve, poor fit]
Cc1ccc(S(=O)(=O)NCC(=O)NCC(=O)NC(C)c2ccccc2Br)cc1C (stereo not given) | inactive
